In all, about 39,000 compounds went through this assay and about 220 (0.56%) showed activity. Some of the results follow.
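Also: static incubation at 37 °C against the wild-type strain, values averaged over two biological replicates.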

In this test the test system is Escherichia coli K-12 BW25113. The experiment in a line: relative growth (OD600 normalised to plate interquartile mean) (fraction); higher = less growth inhibition, active = 0.2 or less. The following applies: 50 µM; LB; incubation time: overnight (16-24 h).
For the molecule `O=C1NC[C@@H](c2ccccc2)OC(=O)[C@@H](Cc2ccc(F)cc2)CC/C=C/C[C@@H]1CC(=O)N(CCO)Cc1ccccc1`, the relative growth was inactive: 1. Take `C[C@@H]1CCCCO[C@H](CN(C)Cc2ccc3c(c2)OCO3)[C@@H](C)CN([C@@H](C)CO)C(=O)c2cc(NC(=O)Nc3ccc(F)cc3)ccc2O1`: the relative growth was inactive: 1.01. In the case of `C=CCN(C#N)c1nc(N(C)C)nc(N(C)C)n1`, the relative growth was inactive: 1.02. Consider `C[C@H](CO)N1C[C@H](C)[C@@H](CN(C)C(=O)Nc2cccc3ccccc23)Oc2ccc(NC(=O)Nc3cccc4ccccc34)cc2C1=O`, for which the relative growth was inactive: 1.07. Turning to `Cc1noc(C)c1S(=O)(=O)Nc1ccc2c(c1)C(=O)N([C@@H](C)CO)C[C@@H](C)[C@H](CN(C)Cc1ccc(-c3ccccc3)cc1)O2`, the relative growth is inactive: 0.981. Regarding `COc1ccc(S(=O)(=O)Nc2ccc3c(c2)C(=O)N([C@@H](C)CO)C[C@H](C)[C@H](CN(C)S(C)(=O)=O)O3)cc1`, the relative growth was inactive: 0.997. The result for `NCCCN1CCCN(CCCN)CC1` reads inactive: 0.977; that for `Cc1noc(C)c1NC(=O)Nc1ccc2c(c1)CC(=O)N([C@H](C)CO)C[C@@H](C)[C@H](CN(C)S(=O)(=O)c1c(C)noc1C)O2`, inactive: 1; that for `C[C@@H]1CN([C@@H](C)CO)C(=O)c2cc(NS(=O)(=O)c3cccs3)ccc2O[C@@H](C)CCCCO[C@@H]1CN(C)Cc1ccc(C(F)(F)F)cc1`, inactive: 1.05. In the case of `CC(=O)N(C)C[C@@H]1Oc2ncc(C#CC(C)(C)O)cc2C(=O)N([C@H](C)CO)C[C@@H]1C`, the relative growth was inactive: 0.986. The result for `C[C@H](CO)N1C[C@H](C)[C@H](CN(C)C(=O)Nc2cccc(F)c2)Oc2ncc(C#CCN(C)C)cc2C1=O` reads inactive: 0.993. As for `O=C(C[C@@H]1CC[C@H]2[C@@H](COC[C@H](O)CN2C(=O)Nc2cccc(Cl)c2)O1)NCCCN1CCOCC1`, the relative growth was inactive: 0.944. Consider `C[C@H](CO)N1C[C@H](C)[C@@H](CN(C)Cc2ccc(C(=O)Nc3ccccc3N)cc2)Oc2ccc(NC(=O)Cn3cnnn3)cc2CC1=O`, for which the relative growth was inactive: 1.01. The same measure for `Cc1noc(C)c1NC(=O)Nc1ccc2c(c1)C(=O)N([C@@H](C)CO)C[C@H](C)[C@@H](CN(C)Cc1ccc(C(=O)O)cc1)OCCCC[C@H](C)O2`: inactive: 0.917; for `C[C@@H]1CCCCO[C@@H](CN(C)S(=O)(=O)c2ccccc2)[C@H](C)CN([C@H](C)CO)C(=O)c2cc(NS(=O)(=O)c3ccc(Cl)cc3)ccc2O1`: inactive: 1.02. For the molecule `C[C@H]1CN([C@@H](C)CO)C(=O)c2cc(NS(C)(=O)=O)ccc2O[C@H]1CN(C)C(=O)Nc1ccccc1`, the relative growth was inactive: 0.986.

For `O=c1ccn(C2OC(CO)C(O)C2O)c(=O)[nH]1` (centres undefined), the relative growth was inactive: 1.01. Turning to `CO[C@H]1CN(C)C(=O)c2ccc(NS(=O)(=O)CC(F)(F)F)cc2OC[C@H](C)N(Cc2ccccn2)C[C@@H]1C`, the relative growth is inactive: 1.04. In the case of `C[C@@H]1CN([C@@H](C)CO)C(=O)c2c(c3ccccc3n2C)-c2ccccc2CO[C@@H]1CN(C)C(=O)Nc1ccccc1`, the relative growth was inactive: 1.

As to `C[C@@H]1CCCCO[C@@H](CN(C)CC2CC2)[C@H](C)CN([C@H](C)CO)C(=O)c2cc(NC(=O)Nc3cccc4ccccc34)ccc2O1`, the relative growth is inactive: 0.982. The same measure for `CC(=O)NCC1CN(c2ccc(N3CCOCC3)c(F)c2)C(=O)O1` (centres undefined): inactive: 0.701. Take `Cc1noc(C)c1NC(=O)N(C)C[C@@H]1Oc2ccc(NC(=O)C3CC3)cc2C(=O)N([C@@H](C)CO)C[C@@H]1C`: the relative growth was inactive: 0.971. With `C[C@@H]1CN([C@@H](C)CO)C(=O)c2ccccc2-c2ccccc2CO[C@@H]1CN(C)Cc1ccc(Cl)c(Cl)c1`, the relative growth is inactive: 1.02. In the case of `C[C@H](CO)N1C[C@H](C)[C@@H](CN(C)S(=O)(=O)c2cn(C)cn2)Oc2ccc(NC(=O)Nc3ccc4c(c3)OCO4)cc2CC1=O`, the relative growth is inactive: 0.978. The same measure for `COC(=O)N1CCC(CN)CC1`: inactive: 1.01. Take `C[C@@H]1CN([C@@H](C)CO)S(=O)(=O)c2ccc(C#Cc3ccccc3)cc2O[C@H]1CN(C)C(=O)Cc1ccccn1`: the relative growth is inactive: 1.01. Consider `COc1ccc(NC(=O)Nc2ccc3c(c2)C(=O)N([C@@H](C)CO)C[C@@H](C)[C@H](CN(C)S(=O)(=O)c2ccc(F)cc2)OCCCC[C@@H](C)O3)cc1`, for which the relative growth is inactive: 1.05. As for `N[C@@H]1CC[C@@H](CCn2cc(-c3ccccn3)nn2)O[C@H]1CO`, the relative growth is inactive: 0.843.

Turning to `COc1ccc2c3c([nH]c2c1)[C@H](CO)N(C[C@]13CCN(CC1)Cc1cc(ccc1F)F)C(=O)Nc1ccc(cc1)F`, the relative growth was inactive: 0.98. As for `CO[C@H]1CN(C)C(=O)c2cc(NS(C)(=O)=O)ccc2OC[C@H](C)N(C(=O)CN(C)C)C[C@H]1C`, the relative growth was inactive: 0.985. Take `C[C@H](CO)N1C[C@H](C)[C@@H](CN(C)S(C)(=O)=O)Oc2ccc(NS(=O)(=O)c3ccccc3)cc2CC1=O`: the relative growth is inactive: 0.997. In the case of `C[C@H]1CN([C@@H](C)CO)C(=O)Cc2cc(NC(=O)C3CC3)ccc2O[C@@H]1CN(C)Cc1ccc(C(=O)O)cc1`, the relative growth is inactive: 0.981.

Consider `C[C@H](CO)N1C[C@H](C)[C@H](CN(C)Cc2ccc(C(=O)O)cc2)Oc2ccc(NC(=O)CCN3CCOCC3)cc2CC1=O`, for which the relative growth was inactive: 1.01. Turning to `O=C(Cc1ccc(-c2ccccc2)cc1)N[C@@H]1CCOC1.O=C(Cc1ccc(-c2ccccc2)cc1)N[C@H]1CCOC1`, the relative growth was inactive: 0.979. As to `C[C@@H]1CCCCO[C@@H](CN(C)Cc2ccncc2)[C@H](C)CN([C@H](C)CO)C(=O)c2cc(NC(=O)NC3CCCCC3)ccc2O1`, the relative growth is inactive: 1.02. The result for `CCC[C@@H](O)C#Cc1cnc2c(c1)C(=O)N([C@H](C)CO)C[C@H](C)[C@H](CN(C)S(=O)(=O)c1cccc(OC)c1)O2` reads inactive: 1.02; that for `COc1ccc(CN(C)C[C@@H]2Oc3ccc(NC(=O)CCCCCC(=O)Nc4ccccc4N)cc3CC(=O)N([C@H](C)CO)C[C@H]2C)cc1`, inactive: 0.978; that for `C[C@H](CO)N1C[C@H](C)[C@@H](CN(C)CC2CCCCC2)Oc2ccc(NC(=O)Cn3cnnn3)cc2C1=O`, inactive: 1.03. Regarding `CN(CC(=O)NC1CCCC1)S(C)(=O)=O`, the relative growth is inactive: 0.986.

Consider `COc1cccc(S(=O)(=O)Nc2ccc3c(c2)[C@H]2C[C@H](CC(=O)NCc4cccc(F)c4)O[C@@H](CO)[C@H]2O3)c1`, for which the relative growth was inactive: 1.03. Take `O=C(NCCN1CCOCC1)c1ccccn1`: the relative growth was inactive: 1.02. Consider `C[C@H](CO)N1C[C@H](C)[C@@H](CN(C)Cc2ccc(-c3ccccc3)cc2)Oc2c(NS(=O)(=O)c3ccccc3)cccc2C1=O`, for which the relative growth was inactive: 0.978. The same measure for `CC(C)NC(=O)N(C)C[C@H]1Oc2ccc(NC(=O)CCC(F)(F)F)cc2CC(=O)N([C@@H](C)CO)C[C@H]1C`: inactive: 0.984.

With `C[C@@H]1CN([C@H](C)CO)C(=O)c2cc(NC(=O)CCCN(C)C)ccc2O[C@@H]1CN(C)Cc1ccc(C(=O)O)cc1`, the relative growth is inactive: 1.01. For the molecule `CO[C@@H]1CN(C)C(=O)c2ccc(NC(=O)CC(F)(F)F)cc2OC[C@@H](C)N(C(=O)C2CCOCC2)C[C@@H]1C`, the relative growth is inactive: 0.992. The result for `C[C@@H]1CN([C@H](C)CO)C(=O)Cc2cc(NC(=O)c3ccncc3)ccc2O[C@@H]1CN(C)S(=O)(=O)c1ccc(Cl)cc1` reads inactive: 0.989.

For `COCC(=O)N(C)C[C@@H]1Oc2cc(C#CCN(C)C)ccc2S(=O)(=O)N([C@H](C)CO)C[C@@H]1C`, the relative growth is inactive: 0.938. In the case of `C[C@@H]1CN([C@@H](C)CO)C(=O)Cc2cc(NC(=O)Cc3cn(C)c4ccccc34)ccc2O[C@@H]1CN(C)Cc1ccc(-c2ccccc2)cc1`, the relative growth is inactive: 0.992.

Take `Cc1noc(C)c1NC(=O)N(C)C[C@@H]1OCCCC[C@H](C)Oc2ccc(NC(=O)CCC(F)(F)F)cc2C(=O)N([C@@H](C)CO)C[C@@H]1C`: the relative growth was inactive: 0.991. Take `Cc1ccc(S(=O)(=O)N2C[C@@H](O)COC[C@H]3O[C@H](CC(=O)NCc4ccccc4C(F)(F)F)CC[C@@H]32)cc1`: the relative growth is inactive: 0.933. In the case of `CCC(=O)OCN1C(=O)C=CC1=O`, the relative growth was inactive: 0.998. `Cc1ccc(S(=O)(=O)Nc2ccc3c(c2)C(=O)N([C@H](C)CO)C[C@@H](C)[C@@H](CN(C)S(=O)(=O)c2cn(C)cn2)O3)cc1`: the relative growth was inactive: 0.956. With `C[C@H]1CCCCO[C@@H](CN(C)C(=O)Nc2ccc3c(c2)OCO3)[C@@H](C)CN([C@@H](C)CO)C(=O)c2cc(NC(=O)Nc3ccc(C(F)(F)F)cc3)ccc2O1`, the relative growth is inactive: 1.05. The result for `O=C(/C=C/c1ccc(O)c(O)c1)O[C@@H]1C[C@](O)(C(=O)O)C[C@@H](OC(=O)/C=C/c2ccc(O)c(O)c2)[C@H]1OC(=O)/C=C/c1ccc(O)c(O)c1` reads inactive: 0.961; that for `C[C@@H]1CN([C@@H](C)CO)C(=O)Cc2cc(NC(=O)CCN3CCOCC3)ccc2O[C@H]1CN(C)S(=O)(=O)c1ccc(Cl)cc1`, inactive: 1; that for `C[C@H]1CCCCO[C@H](CN(C)C(=O)Nc2ccccc2)[C@@H](C)CN([C@@H](C)CO)C(=O)c2cc(NS(=O)(=O)c3cccs3)ccc2O1`, inactive: 1.02.

With `O=C1O[C@H](c2ccccc2)[C@H](c2ccccc2)N2[C@H]1[C@@H](C(=O)N1CCCCCCC1)[C@]1(C(=O)Nc3ccc(C#CC4(O)CCCCCC4)cc31)[C@H]2c1ccc(OCCO)cc1`, the relative growth is inactive: 1.04. The same measure for `C[C@@H]1CN([C@H](C)CO)C(=O)c2cccc(NC(=O)Nc3ccc(C(F)(F)F)cc3)c2O[C@H]1CN(C)C(=O)NC1CCCCC1`: inactive: 0.661; for `C[C@H](CO)N1C[C@H](C)[C@@H](CN(C)C(=O)NC2CCCCC2)OCCCC[C@H](C)Oc2ccc(NS(=O)(=O)c3ccc(F)cc3)cc2C1=O`: inactive: 0.992.

Values taken from the supplement of paper PMC9446081.
